167 variants from the RNAGym collection of RNA variant scans (doi:10.7554/elife.90254) can be followed below.

The labels stand for the following.
B1: OR4K15 (parent)
chain: GUUAACGGUCAUAGGCCAUGGAAACUAGGAGCACCAUUUCGCUGCCAGUGAAGAAAUGAACAAAGAAAAUCUGGGCCAGGCAGGCAUCAAAAGAAAUAGUCUUGCGCUCAACCAGAAAGUCUGUAAUCAUUUUAAGGGUA

The source gives no read counts; variants with many changes may rest on few reads.

This data set covers variants of B1. Briefly: self-cleavage, relative activity (ratio to wild type); higher = more cleavage; in vitro, sequencing; the parent is a self-cleaving ribozyme.
In the case of U49G U57C U97C U122G U127C, the self-cleavage came out at 1.61.

Consider U49C G84A U100C C109A, for which the self-cleavage was 0.1.

For the variant U49A A51U A52G U133A, the self-cleavage amounted to 1.38.

As to A51G A54G A110G, the self-cleavage was determined as 0.2.

As to U49C A82G U139C, the self-cleavage is 0.41.

In the case of U49C A82U U87C A125G, the self-cleavage is 0.01.

With A47U A96U U102C, the self-cleavage worked out at 1.35.

U49C A66G A92G A117G: the self-cleavage is 1.44.

For the variant U49C A68U U139C, the self-cleavage was found to be 0.96.

Regarding G50A A69G C109U, the self-cleavage amounted to 0.35.

For the variant A51G A52G A116G U127A, the self-cleavage amounted to 0.28.

For the variant U49C A90G A91G, the self-cleavage turned out to be 0.6.

Turning to U49C A62U A116G, the self-cleavage turned out to be 0.86.

In the case of U49C A55G C76U A90G A111G, the self-cleavage was determined as 0.01.

Consider G50A A95G G99U, for which the self-cleavage was 0.53.

For U49C U57C A91G A111G, the self-cleavage is 0.02.

Regarding U49C A66G A91U U131C, the self-cleavage turned out to be 1.36.

Consider U49C A59G A111G, for which the self-cleavage was 0.03.

Regarding U49A A52G U87C A94G G104A A111G, the self-cleavage came to 0.02.

As for U49C A51U A62G A67G C76A G84U A86G U122G, the self-cleavage was 0.36.

Consider U49C A52G U100C, for which the self-cleavage was determined as 2.26.

Take A51G A52G A55U A140G: the self-cleavage came out at 2.06.

Regarding U49C A62G A140G, the self-cleavage came to 0.66.

For the variant U49C A69G A110G, the self-cleavage was 0.15.

With A51G A52G U103C U120C, the self-cleavage was found to be 0.66.

For A47U A111G A114U A116U, the self-cleavage was determined as 0.

Turning to U49C A62C C85A U100C, the self-cleavage turned out to be 0.56.

Consider U49C A52G A117U, for which the self-cleavage was 0.57.

For the variant U49A A78G U130C, the self-cleavage was 0.21.

U49C A63G A69C A118U: the self-cleavage was found to be 0.55.

On to G50A U87C A94U, for which the self-cleavage is 1.84.

U49C A51U A64U: the self-cleavage is 0.84.

A51C G79A A94G: the self-cleavage is 0.15.

With U49C A55G U57C U102C U139G, the self-cleavage came to 1.39.

Regarding U49C A55G A60G U124C, the self-cleavage worked out at 0.81.

As for A47U G50A A59G U108C, the self-cleavage is 0.01.

Consider U49C A56G A60G U130C, for which the self-cleavage came out at 1.11.

As to U49C U72C U100C, the self-cleavage was determined as 0.28.

On to U49C A59G G65A U139A, for which the self-cleavage amounted to 0.84.

Regarding U49G U87C U108C, the self-cleavage is 0.01.

Consider U49C A55G A125G, for which the self-cleavage came out at 0.31.

As for A51G A52U A56G U103C A135U, the self-cleavage is 0.56.

On to U49C A95U A126G, for which the self-cleavage is 1.39.

In the case of U49A A54G A62U A134G, the self-cleavage was 1.41.

In the case of U49C A64G A126U, the self-cleavage was 0.82.

For the variant U49C A86U U102A, the self-cleavage was found to be 0.82.

With U49C U72C U127C, the self-cleavage came to 0.08.

For the variant A51C U57C U102C U127A, the self-cleavage was found to be 2.21.

Take U49C C88A A114U U122C: the self-cleavage was found to be 0.02.

With U49A A68G A140G, the self-cleavage is 1.63.

Consider G50A U108C A114U, for which the self-cleavage was 0.02.

As to U49A A54U U102A, the self-cleavage was 0.55.

Take U49C G84A U100C: the self-cleavage was determined as 0.34.

As for U49C A78U A90G A91G, the self-cleavage is 0.15.

For A51C A54G A135G, the self-cleavage is 0.89.

On to G48A A69G A89G A98U A111G, for which the self-cleavage worked out at 0.01.

On to U49C A62U A66G U72A U122G, for which the self-cleavage was 0.4.

As to G50U U72A U103C U131C, the self-cleavage amounted to 0.08.

Take A47U A118G U122C A129G: the self-cleavage was found to be 0.24.

For the variant U49A A52U A59G A67G A96G, the self-cleavage worked out at 1.14.

U49A U57C U108C: the self-cleavage is 0.02.

Regarding U49A A90G A110G A126G U132C, the self-cleavage is 0.05.

As for U49C A63G A64U A116U U122C, the self-cleavage was found to be 0.19.

Take U49C A78C U87A A92G A135G: the self-cleavage worked out at 0.37.

Regarding G48C U103A G123A, the self-cleavage worked out at 0.36.

For U49C A68G A82U A111G, the self-cleavage was 0.01.

As for A47U U124C U132A, the self-cleavage is 0.46.

Regarding U49C A55G A60G A62U, the self-cleavage is 1.37.

Turning to G48A A54G A68U, the self-cleavage is 1.42.

With U49A A54G G58A U70A, the self-cleavage stood at 1.11.

Regarding U49G A67G U72C U130C, the self-cleavage is 0.22.

Take U49C A68C A82G: the self-cleavage was 0.23.

As to A51G A52G A86G, the self-cleavage came to 1.93.

In the case of A51G A52G A86U, the self-cleavage came to 0.94.

On to U49C A86G A92G, for which the self-cleavage is 0.86.

For U49C U103A U108C A114U, the self-cleavage was determined as 0.01.

Take U49C G79U A92G A114U: the self-cleavage turned out to be 0.03.

In the case of U49C A59G A134G, the self-cleavage came out at 1.11.

A51G A52G A91G: the self-cleavage was determined as 0.95.

Take U49C U139G A140U: the self-cleavage was 0.96.

As for U49G A60G A95G A116U, the self-cleavage was 0.64.

Take U49C U102C A134G: the self-cleavage amounted to 1.75.

U49C A59U A78U A89G: the self-cleavage was determined as 0.09.

For the variant U49G U120C C121U, the self-cleavage was 1.29.

Consider G50U A62G A126U, for which the self-cleavage was found to be 1.73.

Turning to U49C A66G A135G, the self-cleavage worked out at 1.25.

In the case of U49C U87A A126C A129G, the self-cleavage came out at 0.56.

With U49C A86G A110G, the self-cleavage is 0.04.

Regarding A47U A94G U102C A114U A135G, the self-cleavage turned out to be 0.02.

Take U49A A78U C109U G136U: the self-cleavage worked out at 0.1.

For U49C A117G A118G U139A A140G, the self-cleavage was determined as 1.95.

As for G50C A56G U102C, the self-cleavage is 1.81.

A47U G80C A95G: the self-cleavage worked out at 0.02.

Regarding U49C U70C U127C, the self-cleavage was found to be 0.27.

For the variant U49A U87C U131C, the self-cleavage turned out to be 0.86.

Consider A51G A52G A114U, for which the self-cleavage amounted to 0.25.

For the variant U49C A55U A59G A90G A126G, the self-cleavage is 0.49.

On to U49C A59G U124C, for which the self-cleavage came to 0.65.

G48U U72A U139C: the self-cleavage came out at 0.34.

A47U U108A U122A A129U U139C: the self-cleavage is 0.01.

A47U U49A A63G A82G A89G A116G: the self-cleavage was found to be 0.04.

Turning to U49C A94U A117G, the self-cleavage is 0.76.

Turning to U49C A55U C105U, the self-cleavage was 0.02.

Take A51C A91G U100A A118G A135G: the self-cleavage turned out to be 0.23.

Regarding U49C A86U A96G U131C, the self-cleavage turned out to be 0.9.

For the variant U49A A89G A125G, the self-cleavage came to 0.11.

U49A A82U A94G A118G: the self-cleavage was determined as 0.06.

In the case of A51G A52U A118G U122C, the self-cleavage turned out to be 0.41.

In the case of U49G A67G U72C, the self-cleavage turned out to be 0.16.

In the case of U49C C85U C109U, the self-cleavage was 0.6.

With A51G A52U A60G A63U, the self-cleavage came to 0.76.

Regarding U49C U131C U133C G136A, the self-cleavage turned out to be 1.26.

Consider A51G A54G A64G A69G U120A A135G, for which the self-cleavage was 1.47.

For U49C A55U U87C A96G, the self-cleavage is 1.23.

Regarding A47U U70G A110G A118U, the self-cleavage was 0.07.

Regarding U49C A82U U103A U120C, the self-cleavage amounted to 0.09.

Consider U49A U102C U132A, for which the self-cleavage was determined as 1.28.

In the case of U49C A98G A116G, the self-cleavage stood at 0.1.

With A47U A96G U108C A117G A126G, the self-cleavage was 0.

As for U49C A51G A54G, the self-cleavage was found to be 1.23.

Turning to U49C A91G A117G, the self-cleavage turned out to be 1.34.

For the variant U49C A56G A62G A66U A110G A114G, the self-cleavage is 0.03.

For A47U U87C A110U, the self-cleavage was determined as 0.51.

Consider U49C A52U U131C, for which the self-cleavage was 1.21.

As to U49C A52U A92G U102C, the self-cleavage was 1.05.

In the case of U49A A68C A114G, the self-cleavage is 0.6.

With U49C A54G U102C C105U A116G A135U, the self-cleavage was 0.37.

In the case of U49A A51G A52G G104A A126G A129C, the self-cleavage turned out to be 0.01.

As to U49A A82G U122A, the self-cleavage was 0.51.

For A47U U49C A111G A125C, the self-cleavage turned out to be 0.

Regarding G48A A56G A59G A60G A69U A82G U103C A118G, the self-cleavage turned out to be 1.71.

As for U49C A98G U108C, the self-cleavage amounted to 0.01.

With G48A U72C U103C, the self-cleavage came to 0.1.

Take U49G A62G A63G: the self-cleavage was determined as 1.18.

For the variant A51G A52U A67G A110G, the self-cleavage is 0.15.

On to G50A A91G U103A G136A, for which the self-cleavage was 0.47.

For U49A U72C C76A, the self-cleavage came to 0.12.

Take G48U A91G A96G: the self-cleavage is 0.47.

For U49A A62U U108C, the self-cleavage was determined as 0.02.

Regarding U49A A82U U108C U130C, the self-cleavage was 0.01.

With A51C U102C A118G, the self-cleavage was 1.47.

Take U49C A89G A125G U133C: the self-cleavage is 0.61.

As for A51C A52G A55G A78G U87C A111G, the self-cleavage was determined as 0.03.

As for U49A A60G U102C, the self-cleavage turned out to be 1.57.

As for U49C U72A A116G, the self-cleavage worked out at 0.13.

For the variant U49G A51G A114C, the self-cleavage is 0.06.

A47U U132C U133C: the self-cleavage is 0.39.

As for U49A A96G A111G U130C U131C, the self-cleavage came out at 0.

Turning to U49C A86G A90G A92G, the self-cleavage stood at 0.51.

For U49A A62G U132C, the self-cleavage worked out at 1.13.

Consider U49C A66G A68G U131C A135G, for which the self-cleavage stood at 0.15.

Turning to U49C A82G A94G U122C A134C, the self-cleavage turned out to be 0.28.

Take U49A A62G A91G A126G: the self-cleavage came out at 0.3.

For the variant U49C A78G U122C, the self-cleavage is 0.13.

On to U49C U57C U132A, for which the self-cleavage amounted to 0.2.

For U49G A95G A118G, the self-cleavage worked out at 1.53.

U49C A67G U122C: the self-cleavage was found to be 1.5.

U49C U100C U103A A110G: the self-cleavage is 0.11.

Take U49A A94G U122A: the self-cleavage came to 1.87.

On to A51G A54G A91G U139A, for which the self-cleavage stood at 0.82.

In the case of U49C A51G A86G A96U U103C, the self-cleavage was determined as 0.49.

In the case of G48A A78U U133C, the self-cleavage worked out at 0.62.

U49A A64U A66G A89G: the self-cleavage is 1.06.

Regarding U49C A62G A117U, the self-cleavage worked out at 1.06.

For A47U A96G U97C U122A, the self-cleavage is 0.06.

On to G50A A69U A82G U120A, for which the self-cleavage turned out to be 0.58.

G48A U130C U131C: the self-cleavage amounted to 1.2.
